167 variants from the RNAGym collection of RNA variant scans (doi:10.1101/gad.245936.114) can be followed below.

Variants at the floor of the assay are shown more often than the library holds them.

The chains are these.
B1: tRNA (parent)
chain: CUCUCGGUAGCCAAGUUGGUUUAAGGCGCAAGACUUUAAUUUAUCACUACGAAAUCUUGAGAUCGGGCGUUCGACUCGCCCCCGGGAGAUUUUUUCCUCGAGCAA

Variants of B1 are the subject of the data set. Briefly: nonsense suppression (GFP-seq) (ratio to wild type); higher = more function; SUP4oc tRNA, yeast GFP reporter sort-seq. An outline of the steps:
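To measure nonsense suppression, tRNA variants from a library carrying ~3% random mutations were integrated into the yeast genome alongside RFP and a GFP ochre reporter under galactose control. Growth took place in raffinose/galactose medium supplemented with 80 mg/L adenine, followed by sorting into GFP/RFP bins and Illumina sequencing of each bin (phred ≥30). For each variant with ≥100 reads and ≥30 cells, the bin median GFP/RFP values were weighted by its estimated cell share per bin and referenced to the unmutated parent tRNA.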
Consider A23G A33C G66A, for which the nonsense suppression was no more than 0.026.
The same measure for A23C A24C A31C: no more than 0.026; for U8A G15A: no more than 0.026.
To G18U G66U belongs no more than 0.026.
To C27U A62C belongs no more than 0.026; to U2A U16A, no more than 0.026.
For C5G U20G C75G G88U, the nonsense suppression was no more than 0.026.
Take U17A G18C A87C: the nonsense suppression is no more than 0.026.
To C56G G59A A62U belongs no more than 0.026.
With A9C A33G C34A U63G, the nonsense suppression was no more than 0.026.
To G10C C11U U70A belongs no more than 0.026; to C3U U8G U76C, no more than 0.026.
Consider A23U A74C, for which the nonsense suppression is no more than 0.026.
For the variant U16C C27U, the nonsense suppression stood at 0.137.
For the variant U16A G88U, the nonsense suppression is no more than 0.026.
To A30G C64A belongs no more than 0.026; to G28C C34A U55A, no more than 0.026; to G28U C34G A60G A87G, no more than 0.026.
On to A30C A31G A62C C81A, for which the nonsense suppression was no more than 0.026.
The same measure for G6A G10A A33G: no more than 0.026.
The same measure for C5G C68G: no more than 0.026.
Consider C11U G85U, for which the nonsense suppression is no more than 0.026.
The same measure for C3G A13U: 0.0541.
To A23G C34G A54G U70C C82A belongs no more than 0.026; to C68G C75U, no more than 0.026; to C1A G25U G67A C72G, no more than 0.026.
To A14U A23U A60G G65C belongs no more than 0.026.
On to U35G U70G, for which the nonsense suppression was no more than 0.026.
As to C5U C12G A13G C29A, the nonsense suppression was no more than 0.026.
On to G7U U63C G73C, for which the nonsense suppression was no more than 0.026.
With U2A A60C, the nonsense suppression is no more than 0.026.
As to U2A U16G G66U G67U G73A, the nonsense suppression is no more than 0.026.
The same measure for A33G U58A: no more than 0.026.
For C1A A30C U35G, the nonsense suppression is no more than 0.026.
To G19A G26A C34G G73C C81A belongs no more than 0.026; to G26U A30C C56A C77G, no more than 0.026.
Turning to A13U A54C G86U, the nonsense suppression is no more than 0.026.
Take G7U A33C: the nonsense suppression is no more than 0.026.
The same measure for U17C A24U C68G: no more than 0.026; for U16A G59A G67U G88C: no more than 0.026; for U21C A54U U57C G59A A89U: no more than 0.026.
U20G A31C G88U: the nonsense suppression is no more than 0.026.
To G32A G67U G69A belongs no more than 0.026.
The same measure for C83U: 0.535; for G28C A31G C77A: no more than 0.026.
To G6C A24G belongs no more than 0.026.
On to G6A A9U A33U A54G U58A G85A, for which the nonsense suppression was no more than 0.026.
To U2G C27U A30G C79U C83A belongs no more than 0.026; to G73U G86A, no more than 0.026; to A13U G73U A87G, no more than 0.026.
To U17A A24C U58G G69C belongs no more than 0.026; to U58G C68U A89C, no more than 0.026; to C5A C79A G88A, no more than 0.026.
On to G6A C64G C79A, for which the nonsense suppression was no more than 0.026.
Regarding C1G C3U G67C A74G, the nonsense suppression is no more than 0.026.
In the case of A23U U57C G73U, the nonsense suppression was no more than 0.026.
With C1A A9C U21G, the nonsense suppression is no more than 0.026.
For G7U A31C U76C A89G, the nonsense suppression is no more than 0.026.
The same measure for U17G G19U: 1.05.
The same measure for C1U C11U A14G G28U A60C: no more than 0.026; for C1A C83U: no more than 0.026; for A54C C81U: 0.21.
With U21C A31G A74G G85A G88C, the nonsense suppression was no more than 0.026.
For the variant C1A G18A U58A A62U, the nonsense suppression is no more than 0.026.
As for U35G G69C C82G, the nonsense suppression was no more than 0.026.
The same measure for U4A A60U: 0.52.
To C11U U17C C29G G32U G59A belongs no more than 0.026.
With G7C U35G A62C, the nonsense suppression is no more than 0.026.
The same measure for A14U G15A A31C G59C: no more than 0.026; for G28C A33G: no more than 0.026.
For the variant C5U U63C G65U, the nonsense suppression is no more than 0.026.
On to C1G A14U A74U, for which the nonsense suppression is no more than 0.026.
The same measure for C3A C27G G32A U35G U71A: no more than 0.026.
To A9G A31C G32C U70A C77U belongs no more than 0.026; to C12U A60G G73U, no more than 0.026; to G67A G78U, 0.0411.
Consider C12G G69U C77G, for which the nonsense suppression is no more than 0.026.
With C11A A62C C68G C80A, the nonsense suppression is no more than 0.026.
The same measure for G67A U70A: no more than 0.026; for G19U A23G C75U: no more than 0.026.
In the case of G18C U20G G65U C75A C77U, the nonsense suppression is no more than 0.026.
As to G19U G78U, the nonsense suppression is no more than 0.026.
The same measure for U4C U70G: no more than 0.026.
As to C1A G85U, the nonsense suppression was found to be 0.03.
As for U21A G66U C80G, the nonsense suppression was 0.219.
Turning to U4G C68G, the nonsense suppression is 0.0622.
For the variant A33G C83G, the nonsense suppression was no more than 0.026.
As to C1U G25U, the nonsense suppression is no more than 0.026.
The same measure for G73U A74C C77G: no more than 0.026; for U57A U76C G78U: no more than 0.026.
The same measure for C11U G61U A89G: no more than 0.026; for G6U U63C G66C: no more than 0.026; for C1G C12G: no more than 0.026.
A13C G59A: the nonsense suppression is no more than 0.026.
To C3U C5U A62G belongs no more than 0.026; to G66C G67A C80G, no more than 0.026; to U70C C79G C83G, no more than 0.026.
The same measure for U8A U76A: no more than 0.026; for A23U G25U: no more than 0.026; for A24C C27G U35A G59C A74U G85U: no more than 0.026.
The same measure for C5U A24C U55C U57C: no more than 0.026.
As for A23C G59U, the nonsense suppression is no more than 0.026.
Turning to G25C A33G U58A U70G U71C, the nonsense suppression is no more than 0.026.
For C11A G61A C83U G86A G88A, the nonsense suppression was no more than 0.026.
To A9U G67C G86C belongs no more than 0.026; to G18U U20C A30U C64U, no more than 0.026.
Consider U21A A87G, for which the nonsense suppression turned out to be 0.493.
To G7U U17C U57G U70C belongs no more than 0.026.
The same measure for C27G C56G G67U: no more than 0.026; for U17A C29U: 1.15.
To A23U A31U belongs no more than 0.026; to A23U G73U G78U C83G, no more than 0.026; to C11A U57C C64G, no more than 0.026.
Regarding G28C C68A, the nonsense suppression is no more than 0.026.
Take A23C A54G: the nonsense suppression is no more than 0.026.
As for C1A G73A, the nonsense suppression worked out at 0.112.
On to C27U C56A G86C, for which the nonsense suppression was no more than 0.026.
To G7A G10C G15A G61C G84C belongs no more than 0.026; to A9U C77U C82A, no more than 0.026; to G32U U55A C81G, no more than 0.026.
As to G7A A87G, the nonsense suppression was no more than 0.026.
Consider A14C G85U, for which the nonsense suppression is no more than 0.026.
To U20A C72U belongs no more than 0.026.
The same measure for U16A G25U C34A: no more than 0.026; for A23C A74G G84A: no more than 0.026; for G19C A33C G73U C77A: no more than 0.026.
The same measure for G59U G65C: no more than 0.026.
Regarding C1A G7C A23G A24G G25C C29G, the nonsense suppression was no more than 0.026.
Consider U20G U71C G73A, for which the nonsense suppression was no more than 0.026.
As for C75A C82A, the nonsense suppression worked out at 0.217.
On to U8G U16A C75U, for which the nonsense suppression was no more than 0.026.
On to G18C C27U, for which the nonsense suppression is no more than 0.026.
A31U U55G A74G: the nonsense suppression is no more than 0.026.
As for U20A G61U, the nonsense suppression amounted to 0.217.
The same measure for G10C A13U G25A: no more than 0.026; for G26A U76A G78C: no more than 0.026; for C27G G61C: no more than 0.026.
To C27U G61U belongs no more than 0.026.
G28C U63A: the nonsense suppression worked out at 0.225.
For the variant C3A U55C U63A G65A, the nonsense suppression is no more than 0.026.
Turning to G15C G19C U58G, the nonsense suppression was no more than 0.026.
Regarding U4G C75U, the nonsense suppression worked out at 1.1.
To A13U G65C belongs no more than 0.026; to C1U U71A, no more than 0.026.
Consider A13C U22G A74U, for which the nonsense suppression is no more than 0.026.
To G6C A14G belongs no more than 0.026; to A33G G78C, no more than 0.026; to U57A G67U U76C, no more than 0.026.
Regarding U35C U55G G66U C81U, the nonsense suppression was no more than 0.026.
Consider A23U A30G C75U, for which the nonsense suppression was no more than 0.026.
The same measure for U2G G73C: no more than 0.026; for C5U C12A A60C C64G: no more than 0.026; for A14C A54C: no more than 0.026.
Regarding A31G U63C, the nonsense suppression was determined as 0.333.
Consider C12A A13G C68G, for which the nonsense suppression is no more than 0.026.
For C3U C34G C64G, the nonsense suppression was no more than 0.026.
To C1U A62U G69A C77G belongs no more than 0.026; to U2C C64G G73U, no more than 0.026.
To A14G U20C G32U G61U belongs no more than 0.026.
To A9G C11A G18U A31U A62C C82A belongs no more than 0.026; to U16A A31C, no more than 0.026.
As to G67A G69A U70A G73U, the nonsense suppression is no more than 0.026.
To U2C U22G belongs no more than 0.026; to G15U C80A, no more than 0.026.
For C83U A87U, the nonsense suppression is no more than 0.026.
In the case of U20A U63A, the nonsense suppression turned out to be 0.187.
The same measure for G10U U57C G67A A87G: no more than 0.026.
